From paper PMC2758704 come the findings set out here.

Amino acid sequences for entries named in this document (tags omitted).
UniProt P18754: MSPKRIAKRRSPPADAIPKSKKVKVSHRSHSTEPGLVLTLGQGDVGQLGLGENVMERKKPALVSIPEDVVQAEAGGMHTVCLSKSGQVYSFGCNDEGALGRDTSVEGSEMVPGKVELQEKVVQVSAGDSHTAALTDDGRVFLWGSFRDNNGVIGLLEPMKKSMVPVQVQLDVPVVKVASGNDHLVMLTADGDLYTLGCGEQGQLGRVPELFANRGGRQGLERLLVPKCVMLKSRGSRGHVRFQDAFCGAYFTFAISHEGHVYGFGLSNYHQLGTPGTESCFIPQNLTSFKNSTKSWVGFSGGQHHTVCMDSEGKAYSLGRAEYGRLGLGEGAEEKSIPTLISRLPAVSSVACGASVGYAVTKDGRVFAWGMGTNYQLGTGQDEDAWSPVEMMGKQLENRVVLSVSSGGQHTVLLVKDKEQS
UniProt P09211: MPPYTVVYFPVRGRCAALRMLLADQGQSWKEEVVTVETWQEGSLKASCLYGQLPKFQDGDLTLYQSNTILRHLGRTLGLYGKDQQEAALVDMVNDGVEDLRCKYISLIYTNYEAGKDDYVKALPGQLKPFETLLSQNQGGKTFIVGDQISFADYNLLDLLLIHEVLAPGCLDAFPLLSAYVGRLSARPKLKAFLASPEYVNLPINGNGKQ
UniProt P03129: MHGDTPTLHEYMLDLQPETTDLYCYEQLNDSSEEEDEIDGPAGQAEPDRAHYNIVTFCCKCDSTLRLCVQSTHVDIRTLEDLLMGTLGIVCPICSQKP
UniProt P06788: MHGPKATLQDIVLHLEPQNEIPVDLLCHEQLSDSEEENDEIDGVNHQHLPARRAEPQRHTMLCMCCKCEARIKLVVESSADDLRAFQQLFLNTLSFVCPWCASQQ

These are yes or no findings as the source states them, for the method shown. Binding seen in cells or lysates may run through a third protein. Some entries that bind do so weakly or less than the wild type. For part of these data: Tags and fused reporters may be left off the sequences shown.

For test [1], the target named is N-6His-RCC1 recombinant protein (regulator of chromosome condensation 1) (UniProt P18754). In words: pull-down; Ni-NTA agarose beads coupled to 4 µg of recombinant N-6His GSTP1 or N-6His RCC1; 35S-labelled in vitro translated E7 proteins added; SDS-PAGE and autoradiography; only the target purified.
Test [2] deals with N-6His-GSTP1 recombinant protein (human) (UniProt P09211). The test is described as above.
The target in test [3] is T1, recombinant S. japonicum GST-pRb protein (human) (UniProt P06400).
T1 sequence: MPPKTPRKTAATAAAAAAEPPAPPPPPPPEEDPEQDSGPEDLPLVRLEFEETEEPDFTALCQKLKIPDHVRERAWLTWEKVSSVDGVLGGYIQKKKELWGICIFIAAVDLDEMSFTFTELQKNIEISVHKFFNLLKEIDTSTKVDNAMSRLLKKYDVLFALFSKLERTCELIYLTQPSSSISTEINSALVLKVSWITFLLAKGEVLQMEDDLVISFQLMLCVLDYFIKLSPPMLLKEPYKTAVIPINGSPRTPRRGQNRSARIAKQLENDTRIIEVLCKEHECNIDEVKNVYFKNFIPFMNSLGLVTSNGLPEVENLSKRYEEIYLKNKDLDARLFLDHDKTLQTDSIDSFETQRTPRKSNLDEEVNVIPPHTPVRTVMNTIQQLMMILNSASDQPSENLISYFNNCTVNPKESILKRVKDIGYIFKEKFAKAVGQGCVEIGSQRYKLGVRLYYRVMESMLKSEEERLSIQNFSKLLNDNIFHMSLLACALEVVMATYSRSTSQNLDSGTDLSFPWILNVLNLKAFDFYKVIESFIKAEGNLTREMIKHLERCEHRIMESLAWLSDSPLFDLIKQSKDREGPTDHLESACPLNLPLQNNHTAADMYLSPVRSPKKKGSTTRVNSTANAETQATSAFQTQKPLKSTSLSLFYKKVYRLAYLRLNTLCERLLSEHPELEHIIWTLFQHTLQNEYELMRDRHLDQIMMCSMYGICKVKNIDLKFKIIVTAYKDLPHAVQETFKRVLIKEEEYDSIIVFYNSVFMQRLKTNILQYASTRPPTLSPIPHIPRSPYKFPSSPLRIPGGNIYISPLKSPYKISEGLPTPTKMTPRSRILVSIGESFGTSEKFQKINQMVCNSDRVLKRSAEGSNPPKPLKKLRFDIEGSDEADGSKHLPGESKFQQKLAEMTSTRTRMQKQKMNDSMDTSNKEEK
In words: pull-down; glutathione-Sepharose 4B coupled to 1 µg of S. japonicum GST-pRb or S. japonicum GST; 35S-cysteine-labelled in vitro translated E7 proteins added; SDS-PAGE and autoradiography; only the target purified.

The target of test [4] is HPV-16 E7 expressed endogenously in CaSki and SiHa cells (Human Papillomavirus 16 (HPV-16) (endogenous in CaSki and SiHa)) (UniProt P03129). The test can be described thus: co-IP; cell lysates (50 mM Tris-Cl pH 7.4, 5 mM EDTA, 250 mM NaCl, 50 mM NaF, 0.1% Triton X-100); immunoprecipitation with anti-T7 Tag, anti-HPV-16 E7, anti-HA or anti-GSTP1 antibody and protein A- or G-Sepharose; Western blot. (A western blot detects proteins with antibodies after separation by electrophoresis.)

Consider “radiolabeled IVT HPV-18 E7 (from UniProt P06788 1-105)”, for which the binding result is on record as “no binding” in test [1] and “binds” in test [2].
“radiolabeled in vitro translated (IVT) HPV-16 E7 (from UniProt P03129 1-98)”: the binding entry in test [1] was “no binding”; in test [2], “binds”; in test [3], “binds”.
In the case of “glutathione S-transferase P1-1 (GSTP1), endogenous (from UniProt P09211 1-210)”, the binding result in test [4] is “binds”.
